Experimental findings from the supplement of paper PMC11417369 are described below.

The other results are listed elsewhere or left out.

The assay deals with PfSIP2 AP2 domain 1 (GST-tagged). Description: gcPBM binding intensity (ln(normalized median fluorescence intensity)); higher = stronger DNA binding. Summed up:
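For binding intensity, the highest Masliner-normalised natural-log median intensity across replicate spots of either probe orientation was taken. Protein bound to the array was stained with Alexa488 anti-GST antibody and scanned at 488 nm. The protein, GST-tagged P. falciparum DNA-binding domains from E. coli at about 25 μg on average, had been applied for 1 h to an Agilent 4 × 180k array of primer-extended double-stranded 36-bp intergenic genomic probes and negative controls.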
In the case of “ATCTTTTATATAAAATGTACAGAGTTTGAAAGAATA [XGTACX_site8826]”, the “gcPBM binding intensity (ln)” value amounted to 7.3.
With “AATTTTATTCATTGAGCACACAAAATAAATTATCAA [CACACA_site9079]”, the “gcPBM binding intensity (ln)” value turned out to be 6.87.
Next, “GTATTACAACGACACACACACCTATATATCATAGTA [CACACA_site7877]”: 7.15; “GATATTATGTGTTTGGTATTTTTTGATGTTGGTAGG [XGTACX_negctrl_site563]”: 7.01.
Under “TAGAACAAATAAAACACACACATATAAATATAGATG [CACACA_site7325]” stands 7.14; under “GTGCAAAATATTTTTACACACAAATTCTTACAACAG [CACACA_site7556]”, 9.32.
Under “ATATCTATGTTTATCTCGAATAACTTAAAAAATTAT [CACACA_negctrl_site1131]” stands 6.93.
As for “TCTTTCTAAAGATGTAGTACAAAATAAATATAATAT [XGTACX_site6564]”, the “gcPBM binding intensity (ln)” value came to 7.17.
Under “TTTATACAAACAACTTTATATTAATGTTTAACGGAG [GTGCAC_negctrl_site396]” stands 7.08; under “AAGGCAAACAAACACACACACATATATACATATATA [CACACA_site2122]”, 7.17.
Under “TTATCACACCTTTTTTGTACGAAATAAAAAAAAAAA [XGTACX_site5564]” stands 7.22; under “TAATATGCTCATGTAACACACATTTGCATATTTTTC [CACACA_site1357]”, 6.66; under “ATATGTATGAAGTGTACACATATATTGTATTTTCTT [CACACA_site5503]”, 7.01.
Under “GTAAGCACACATAGTTGTACATTAATAAAAATAAAT [XGTACX_site5876]” stands 7.22; under “TTCCTATAAAAAAACACACACATATAAATATATATA [CACACA_site2318]”, 7.
With “AACAATTTATATAAAGCACACATGGGAAGGAAATAC [CACACA_site1712]”, the “gcPBM binding intensity (ln)” value is 7.81.
Under “TACAATTTAATATATACACACAAATAAATTATGCTT [CACACA_site856]” stands 6.73.
Under “ATATATGACAAATGTAGTACAAATTATTGTATCATA [XGTACX_site3675]” stands 6.97; under “TTATTGCATATTTACACACGTACTAATTTAAACAAG [CACACA_site971]”, 7.28.
Under “AGAATATTTAAAAAAGGTACACAAAAACCAAAATAA [XGTACX_site8569]” stands 7.32; under “TATTAATACAGACACACACACACACCCAATAAAATA [CACACA_site243]”, 7.27; under “ATAAATTCATATATGAGTACTAAAAATATCTTTTTC [XGTACX_site5541]”, 6.87.
Regarding “AAAAAAAACGAACACACACACATTCAATATAAAACA [CACACA_site6170]”, the “gcPBM binding intensity (ln)” value is 6.9.
Consider “CAATGGTCATTTAGTTGTACTTAATTTTAAATCAAA [XGTACX_site4075]”, for which the “gcPBM binding intensity (ln)” value was 7.06.
Under “TTTTTTGTTATTAAAAGTACATTATATGCTAGTTAA [XGTACX_site8747]” stands 6.94; under “TTAAAAATATTATGTACACACATTTGAGATATTTGT [CACACA_site6953]”, 6.95.
Next, “TGAAATAAAATTTATACACACTTGCTAAATGATCAT [CACACA_site4265]”: 6.72; “TATCATTAATTTACATGTACATAAATGAATGTTTAT [XGTACX_site5608]”: 7; “TTCGTAATTTATATCACACACATATATCTATAATAA [CACACA_site7458]”: 7.47.
As for “AAAGGCTATCTTATATACTCCTAAAACGCGAACGTA [CACACA_negctrl_site396]”, the “gcPBM binding intensity (ln)” value worked out at 6.71.
Next, “AATATATAAATATTGTGTACTTATTTTTTTATATGT [XGTACX_site4377]”: 7.16.
Under “ATAAATTCTATGTATACACACATATAAAATATAGAT [CACACA_site7296]” stands 6.96; under “ATTATATACATATATGCACACAAAAAAATATATATT [CACACA_site8508]”, 7.28.
Next, “GACTATTTTAATATTTTACACACCATGTAAAATATA [CACACA_site9050]”: 7.11.
With “ACATAATAAAAAAAACGTACAAATAGGTTTTTCATA [XGTACX_site6645]”, the “gcPBM binding intensity (ln)” value came out at 6.93.
Under “TTTTTTTATTATTAAAGTACTAAAAAATGAAAACTG [XGTACX_site6758]” stands 7.49; under “TATAATAAAAAATGTACACACATAAGAAAATTTAAT [CACACA_site2901]”, 7.16; under “TGGGAATAAAAACACACACACACACCGATATATATA [CACACA_site5875]”, 7.75.
Regarding ATATATTAAAACCTAGTGCATTTGTACATATTTCAA, the “gcPBM binding intensity (ln)” value is 8.05.
Under “AGGTTAAAACATATATATATATATATATATATATAT [XGTACX_negctrl_site333]” stands 9.11.
In the case of TTATACAGGACAATAGTGCACATAAATATATGTATA, the “gcPBM binding intensity (ln)” value was 10.6.
Next, “TATATATATATATACACACACACCGTCCGTGTTAAA [CACACA_site2979]”: 9.53; “AAGTAATTTATGCATACACACATATATAAATATGTA [CACACA_site7813]”: 7.11.
Next, “ATATATATAAAACACACACACACATGTTTTAAAACT [CACACA_site78]”: 7.63; “AAAAACTATTGTAGGACACACAAAATTCCAATTTTA [CACACA_site1701]”: 6.93.
“AAATAAATGTTATGCATACACACTTTATACCTATTT [CACACA_site3779]”: the “gcPBM binding intensity (ln)” value came to 7.36.
As for “AATGAATGAATTATTTTGCGCTTATTATAGGACGAA [XGTACX_negctrl_site218]”, the “gcPBM binding intensity (ln)” value came out at 7.3.
Next, “ATATATATTAGGTATTGTACTTATATGCATATAAGT [XGTACX_site2700]”: 7.26.
Under “TCTTTTATGTTTGTTTTTCCCTTTTTTTATGTTCCC [CACACA_negctrl_site1722]” stands 6.95.
Next, “TATATATATATTTATACACACATTAGTGTATACATG [CACACA_site2950]”: 8.89; “CACAAAAAGAAACACACACACATATATATTTATTAT [CACACA_site3646]”: 6.87.
On to “TTAGATATAAAAGCATGTACTTGTATAAAATATATA [XGTACX_site8272]”, for which the “gcPBM binding intensity (ln)” value turned out to be 7.03.
Under TTCCCTATATAGAGCATGCACTATATTCAAATGATG stands 8.21; under “TTATCAAATGAGTGTTGTACGTCTTTTGAAATACCA [XGTACX_site8804]”, 7.23; under “GAAAAATTGAATTTGGGTACATATAAATATTATATT [XGTACX_site2363]”, 6.85.
In the case of “ATAAATATTAGCAGTTGTACAATAAATATATGTAAT [XGTACX_site2534]”, the “gcPBM binding intensity (ln)” value turned out to be 7.06.
Under “AAAATGTTTTTATCCAGTACATAAATATATATATAT [XGTACX_site7398]” stands 8.83.
